The values below come from the supplement of paper PMC10369915.

B1: HRC_Y99 (peptide)
chain: DVSKEYGHLLP
B2: HSPA9_Y230 (peptide)
chain: AAALAYGLDKS
B3: HTATIP2_Y111_R106S (peptide)
chain: SVDRDYVLKSA
B4: HUWE1_Y4066 (peptide)
chain: LLREWYMIISR
B5: HS3ST5_Y244 (peptide)
chain: ERWLKYFPIEQ
B6: HSPA9_Y128_R126W (peptide)
chain: LIGWRYDDPEV
B7: HTATIP2_Y111_A116T (peptide)
chain: RVDRDYVLKST
B8: HPRT1_Y81_L78V (peptide)
chain: ADVLDYIKALN
B9: HSPB1_Y142_K141Q (peptide)
chain: CFTRQYTLPPG
B10: HRAS_Y64 (peptide)
chain: AGQEEYSAMRD
B11: HPRT1_Y198_D201G_YF (peptide)
chain: LDFNEYFRGLN
B12: HUWE1_Y4066_R4063Q (peptide)
chain: LLQEWYMIISR
B13: HSPA9_Y196_S200L (peptide)
chain: ITVPAYFNDLQ
B14: HPRT1_Y198_Y195C (peptide)
chain: LDCNEYFRDLN
B15: HSPA9_Y181_H184Y (peptide)
chain: ETAENYLGYTA
B16: HSPA1A_Y107 (peptide)
chain: KVQVSYKGETK
B17: HRNR_Y517 (peptide)
chain: GSSSSYGQHGS
B18: HTATIP2_Y111_D108Y_YF (peptide)
chain: RVFRDYVLKSA

The other results are listed elsewhere or left out. Rule as the data show it: active = 3.2 or more and inactive = the rest. Only a few entries rise above the background.
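Also: displayed peptides selected on beads carrying the immobilized SH2 domain, with library peptides lacking any tyrosine serving as negative controls.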

The target in the first experiment is SHP2 C-SH2 domain E139D. In words: enrichment score (SH2-bound / input frequency) (ratio); bacterial display of known human phosphotyrosine sites (pTyr-Var adds point mutants) read by sequencing; higher = stronger binding; tyrosines were phosphorylated by kinases first. The settings on record: peptide library: pTyr-Var.
Consider B1, for which the enrichment score is inactive: 0.668.

Regarding B2, the enrichment score is inactive: 0.719.

For the molecule B3, the enrichment score is inactive: 0.579.

On to B4, for which the enrichment score is active: 3.7.

Consider B5, for which the enrichment score is inactive: 1.24.

Consider B6, for which the enrichment score was inactive: 1.26.

Consider B7, for which the enrichment score is inactive: 0.855.

For the molecule B8, the enrichment score was inactive: 0.943.

For the molecule B9, the enrichment score was inactive: 0.543.

For B10, the enrichment score is inactive: 0.559.

Regarding B11, the enrichment score was inactive: 0.886.

With B12, the enrichment score was inactive: 2.79.

Consider B13, for which the enrichment score is inactive: 1.27.

As to B14, the enrichment score was inactive: 1.55.

On to B15, for which the enrichment score is inactive: 0.743.

On to B16, for which the enrichment score is inactive: 0.951.

For the molecule B17, the enrichment score was inactive: 0.531.

Take B18: the enrichment score was inactive: 0.866.

The target of the next experiment is SHP2 C-SH2 domain wild-type. The description is as above. The settings on record: peptide library: pTyr-Var.
Regarding B1, the enrichment score is inactive: 0.609.

Regarding B2, the enrichment score is inactive: 0.629.

Consider B3, for which the enrichment score was inactive: 0.543.

For the molecule B4, the enrichment score is active: 3.75.

Take B5: the enrichment score was inactive: 1.25.

As for B6, the enrichment score was inactive: 0.921.

Take B7: the enrichment score was inactive: 0.845.

For the molecule B8, the enrichment score was inactive: 0.686.

With B9, the enrichment score was inactive: 0.611.

Regarding B10, the enrichment score is inactive: 0.611.

For B11, the enrichment score was inactive: 1.01.

As to B12, the enrichment score was inactive: 2.87.

As for B13, the enrichment score is inactive: 1.44.

Consider B14, for which the enrichment score is inactive: 0.965.

Regarding B15, the enrichment score is inactive: 0.876.

For B16, the enrichment score is inactive: 0.624.

In the case of B17, the enrichment score is inactive: 0.437.

Take B18: the enrichment score was inactive: 0.809.

A further experiment deals with SHP2 N-SH2 domain L43F. The description is as above. The following applies: peptide library: pTyr-Var.
For B1, the enrichment score is inactive: 0.454.

With B2, the enrichment score was inactive: 0.714.

Take B3: the enrichment score was inactive: 0.633.

Consider B4, for which the enrichment score was active: 3.58.

As for B5, the enrichment score was inactive: 1.48.

Turning to B6, the enrichment score is inactive: 1.31.

As for B7, the enrichment score was inactive: 0.584.

On to B8, for which the enrichment score was inactive: 1.15.

As to B9, the enrichment score was inactive: 0.57.

Consider B10, for which the enrichment score was inactive: 0.602.

On to B11, for which the enrichment score is inactive: 0.796.

Regarding B12, the enrichment score was inactive: 2.48.

As to B13, the enrichment score is inactive: 1.07.

Consider B14, for which the enrichment score is inactive: 1.07.

Regarding B15, the enrichment score is inactive: 0.838.

For B16, the enrichment score is inactive: 0.753.

For B17, the enrichment score is inactive: 0.317.

On to B18, for which the enrichment score was inactive: 0.612.

Another experiment has as its target SHP2 N-SH2 domain T42A. Described as above. The settings on record: peptide library: pTyr-Var.
As to B1, the enrichment score is inactive: 0.642.

With B2, the enrichment score was inactive: 0.724.

For B3, the enrichment score was inactive: 0.568.

For the molecule B4, the enrichment score is inactive: 3.05.

Take B5: the enrichment score is inactive: 1.46.

For the molecule B6, the enrichment score was inactive: 1.13.

With B7, the enrichment score was inactive: 0.878.

For the molecule B8, the enrichment score was inactive: 0.854.

Consider B9, for which the enrichment score is inactive: 0.563.

For the molecule B10, the enrichment score was inactive: 0.624.

In the case of B11, the enrichment score is inactive: 0.967.

As to B12, the enrichment score was inactive: 2.73.

With B13, the enrichment score is inactive: 1.14.

In the case of B14, the enrichment score was inactive: 0.993.

In the case of B15, the enrichment score is inactive: 0.661.

In the case of B16, the enrichment score is inactive: 0.602.

On to B17, for which the enrichment score was inactive: 0.377.

B18: the enrichment score is inactive: 0.992.

The next experiment deals with SHP2 N-SH2 domain T52S. Described as above. The settings on record: peptide library: pTyr-Var.
Regarding B1, the enrichment score is inactive: 0.725.

For B2, the enrichment score is inactive: 0.785.

Turning to B3, the enrichment score was inactive: 0.565.

As to B4, the enrichment score is active: 3.66.

Turning to B5, the enrichment score was inactive: 1.44.

Regarding B6, the enrichment score is inactive: 1.47.

With B7, the enrichment score was inactive: 1.05.

As to B8, the enrichment score is inactive: 0.799.

On to B9, for which the enrichment score was inactive: 0.456.

B10: the enrichment score was inactive: 0.555.

As for B11, the enrichment score was inactive: 0.926.

For B12, the enrichment score is inactive: 2.42.

As to B13, the enrichment score is inactive: 1.15.

For the molecule B14, the enrichment score is inactive: 0.999.

Regarding B15, the enrichment score is inactive: 0.729.

For B16, the enrichment score is inactive: 0.782.

As for B17, the enrichment score was inactive: 0.332.

In the case of B18, the enrichment score was inactive: 0.966.

The target of the next experiment is SHP2 N-SH2 domain wild-type. Described as above. The following applies: peptide library: pTyr-Var.
On to B1, for which the enrichment score was inactive: 0.68.

For the molecule B2, the enrichment score was inactive: 0.736.

As for B3, the enrichment score is inactive: 0.697.

As to B4, the enrichment score was active: 3.77.

For B5, the enrichment score is inactive: 1.13.

Consider B6, for which the enrichment score was inactive: 1.25.

On to B7, for which the enrichment score was inactive: 0.875.

For B8, the enrichment score is inactive: 0.736.

For B9, the enrichment score is inactive: 0.839.

In the case of B10, the enrichment score was inactive: 0.638.

For B11, the enrichment score is inactive: 0.832.

On to B12, for which the enrichment score was inactive: 3.05.

With B13, the enrichment score is inactive: 2.17.

Consider B14, for which the enrichment score is inactive: 1.16.

Consider B15, for which the enrichment score was inactive: 0.653.

With B16, the enrichment score is inactive: 0.87.

With B17, the enrichment score was inactive: 0.588.

Turning to B18, the enrichment score was inactive: 0.846.
